Out of some 310,000 compounds screened, about 2,200 (0.71%) showed an effect of 50% or more. Effects have a minus sign here. The list shows a part of the results.
These compounds were tested against human ether-à-go-go-related gene (hERG) potassium channel (human, UniProt Q12809) (assay: primary screen, population patch clamp on CHO cells stably expressing hERG).
human ether-à-go-go-related gene (hERG) potassium channel, sequence (Q12809 whole entry, looked up): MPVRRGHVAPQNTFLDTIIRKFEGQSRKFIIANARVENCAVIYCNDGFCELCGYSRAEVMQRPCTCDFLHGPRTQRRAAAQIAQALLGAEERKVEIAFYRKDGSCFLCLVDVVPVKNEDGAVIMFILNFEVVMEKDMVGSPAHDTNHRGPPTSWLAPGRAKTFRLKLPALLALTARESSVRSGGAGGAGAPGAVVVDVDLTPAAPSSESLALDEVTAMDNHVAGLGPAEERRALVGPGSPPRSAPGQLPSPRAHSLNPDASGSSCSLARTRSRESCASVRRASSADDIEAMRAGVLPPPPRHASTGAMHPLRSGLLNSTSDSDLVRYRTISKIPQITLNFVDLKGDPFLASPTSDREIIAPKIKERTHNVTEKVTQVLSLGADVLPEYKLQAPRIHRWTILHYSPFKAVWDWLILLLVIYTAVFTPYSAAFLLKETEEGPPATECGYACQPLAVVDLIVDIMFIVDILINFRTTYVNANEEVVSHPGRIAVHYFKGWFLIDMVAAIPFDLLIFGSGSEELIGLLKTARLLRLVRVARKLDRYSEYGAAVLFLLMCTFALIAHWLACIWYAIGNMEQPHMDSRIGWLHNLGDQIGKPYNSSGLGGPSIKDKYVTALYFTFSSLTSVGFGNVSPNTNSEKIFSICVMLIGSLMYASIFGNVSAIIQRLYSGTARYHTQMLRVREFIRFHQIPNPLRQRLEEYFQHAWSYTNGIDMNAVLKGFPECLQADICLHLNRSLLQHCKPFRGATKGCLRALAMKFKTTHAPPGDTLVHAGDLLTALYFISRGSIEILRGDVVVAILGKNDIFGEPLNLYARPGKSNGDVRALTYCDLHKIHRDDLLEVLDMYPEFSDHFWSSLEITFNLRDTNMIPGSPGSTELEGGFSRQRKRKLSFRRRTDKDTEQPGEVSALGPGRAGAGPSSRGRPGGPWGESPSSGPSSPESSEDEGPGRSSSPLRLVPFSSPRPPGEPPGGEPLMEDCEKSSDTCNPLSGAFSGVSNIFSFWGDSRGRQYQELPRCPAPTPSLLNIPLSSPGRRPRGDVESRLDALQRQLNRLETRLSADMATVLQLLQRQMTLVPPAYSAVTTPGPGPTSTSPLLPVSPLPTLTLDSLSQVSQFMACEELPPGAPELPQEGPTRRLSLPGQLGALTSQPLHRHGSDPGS

**Q.** For `COc1ccc(C(=O)O)cc1S(=O)(=O)N1CCN(c2ccccn2)CC1`, which “hERG current change (%, negative = inhibition) at 1uM” value is on record?
**A.** The value was 18.2%.

**Q.** For `CCOC(=O)c1ccc(Nc2nc(C)cc(C)n2)cc1`, which “hERG current change (%, negative = inhibition) at 1uM” value is on record?
**A.** Its value is 9.94%.

**Q.** For `O=C(CC12CC3CC(CC(C3)C1)C2)NCC(=O)N1CCCC1`, which “hERG current change (%, negative = inhibition) at 1uM” value is on record?
**A.** Its value is 9.16%.

**Q.** Which “hERG current change (%, negative = inhibition) at 1uM” value does the source give for `COc1ccc(Cl)cc1C(=O)NNC(=O)C1COc2ccccc2O1` (stereo not shown) here?
**A.** Its value is 6.95%.

**Q.** Which “hERG current change (%, negative = inhibition) at 1uM” value does the source give for `CC1(C)CC(NC2C3CC4CC(C3)CC2C4)CC(C)(C)N1.Cl` (stereo not shown) here?
**A.** The value was 13.5%.

**Q.** With `COc1ccc(C2C(=O)N(C3CCCCC3)CC(=O)N2C2CCCCC2)cc1` (stereo not shown) as the compound, how does the “hERG current change (%, negative = inhibition) at 1uM” value read?
**A.** The value was -18%.

**Q.** How did the “hERG current change (%, negative = inhibition) at 1uM” value turn out when `COc1ccccc1NS(=O)(=O)c1ccc(O)c(C(=O)OCc2cccc([N+](=O)[O-])c2)c1` was run?
**A.** The value was 9.96%.

**Q.** How did the “hERG current change (%, negative = inhibition) at 1uM” value turn out when `Cc1ncc([N+](=O)[O-])n1CCOc1nonc1N` was run?
**A.** Its value is 3.79%.

**Q.** `COC(=O)C1=C(c2ccccc2OCc2ccccc2)C[C@@H]2CC[C@H]1N2C(=O)NCc1ccc(N(C)C)cc1` was tested. Which “hERG current change (%, negative = inhibition) at 1uM” value did it give?
**A.** Its value is 19.8%.

**Q.** For `O=C(CN(C(=O)CNC(=O)c1ccco1)c1ccc(F)cc1)NC1CCCC1`, which “hERG current change (%, negative = inhibition) at 1uM” value is on record?
**A.** Its value is 9.54%.

**Q.** Which “hERG current change (%, negative = inhibition) at 1uM” value does the source give for `O=C(c1cccc(S(=O)(=O)Nc2ccccc2Cl)c1)N1CCN(C(=O)c2ccco2)CC1` here?
**A.** Its value is 11.6%.

**Q.** How did the “hERG current change (%, negative = inhibition) at 1uM” value turn out when `COc1ccc(CNC(=O)CN(c2ccc(C)cc2)S(=O)(=O)c2c(C)noc2C)cc1` was run?
**A.** The value was 14%.

**Q.** For `CCOC(=O)c1ccccc1NC(=O)COC(=O)CC1CCCCC1`, which “hERG current change (%, negative = inhibition) at 1uM” value is on record?
**A.** Its value is 5.51%.

**Q.** How did the “hERG current change (%, negative = inhibition) at 1uM” value turn out when `COc1ccc(NC(=O)c2cc(C)nc3ccccc23)cc1S(=O)(=O)Nc1ccccc1Cl` was run?
**A.** Its value is 10%.

**Q.** With `CCCCc1nc(SCCOC)c2c(=O)n(C)c(=O)n(C)c2n1` as the compound, how does the “hERG current change (%, negative = inhibition) at 1uM” value read?
**A.** Its value is 6.1%.

**Q.** `CCn1c(SCC(=O)NCCc2ccccc2)nnc1-c1ccco1` was tested. Which “hERG current change (%, negative = inhibition) at 1uM” value did it give?
**A.** Its value is 1.26%.

**Q.** For `COc1ccc(CSc2ncnc3sccc23)cc1F`, which “hERG current change (%, negative = inhibition) at 1uM” value is on record?
**A.** Its value is 14.2%.

**Q.** Which “hERG current change (%, negative = inhibition) at 1uM” value does the source give for `O=C(CC(c1ccccc1)c1ccccc1O)N1CCCC1` (stereo not shown) here?
**A.** The value was 2.33%.

**Q.** With `CCOC(=O)[C@H]1[C@H]2COc3ccc(Br)cc3[C@@H]2N2C(=O)CN(Cc3ccc(F)cc3)C(=O)[C@@]12C` as the compound, how does the “hERG current change (%, negative = inhibition) at 1uM” value read?
**A.** Its value is 11.9%.

**Q.** `Cn1c(SCc2ccc(F)cc2Cl)nc2ccccc2c1=O` was tested. Which “hERG current change (%, negative = inhibition) at 1uM” value did it give?
**A.** Its value is 14.4%.

**Q.** With `c1ccc(Cc2nc3ccccc3n2Cc2ccccc2)cc1` as the compound, how does the “hERG current change (%, negative = inhibition) at 1uM” value read?
**A.** Its value is -0.477%.

**Q.** How did the “hERG current change (%, negative = inhibition) at 1uM” value turn out when `O=C(CCNNC(=O)c1ccncc1)NCc1ccccc1` was run?
**A.** The value was 11.9%.

**Q.** `C[C@@H](NC(=O)c1ncn(C)c1C(=O)N[C@H](C)c1ccccc1)c1ccccc1` was tested. Which “hERG current change (%, negative = inhibition) at 1uM” value did it give?
**A.** Its value is 12%.

**Q.** For `O=C(Nc1ccccc1Cl)c1cc[n+](Cc2ccc([N+](=O)[O-])cc2)cc1.[Br-]`, which “hERG current change (%, negative = inhibition) at 1uM” value is on record?
**A.** The value was 9.59%.

**Q.** How did the “hERG current change (%, negative = inhibition) at 1uM” value turn out when `CCOC(=O)C1CCN(C(=O)Cc2ccc(-c3ccccc3)cc2)CC1` was run?
**A.** Its value is -3.96%.

**Q.** `CCCCOC(=O)C1=C(C)NC2=C(C(=O)CCC2)C1c1cc(OC)ccc1OC` (stereo not shown) was tested. Which “hERG current change (%, negative = inhibition) at 1uM” value did it give?
**A.** The value was 5.13%.

**Q.** With `COc1ccc(CCNC(=O)C2CC(c3ccccc3C(F)(F)F)=NO2)cc1` (stereo not shown) as the compound, how does the “hERG current change (%, negative = inhibition) at 1uM” value read?
**A.** Its value is 13.3%.

**Q.** Which “hERG current change (%, negative = inhibition) at 1uM” value does the source give for `Cc1cc(C)c(NC(=O)CNC(=O)[C@@H]2CCCN2C(=O)c2cccs2)c(C)c1` here?
**A.** The value was 10.8%.

**Q.** Which “hERG current change (%, negative = inhibition) at 1uM” value does the source give for `Cc1ccc(/C=C/C(=O)N2CC(=O)Nc3ccccc32)o1` here?
**A.** The value was 7.37%.

**Q.** `CC1=Nc2ccccc2N=C(NC(=O)CN2CCN(c3ccccc3)CC2)C1c1ccccc1` (stereo not shown) was tested. Which “hERG current change (%, negative = inhibition) at 1uM” value did it give?
**A.** Its value is 14.5%.

**Q.** How did the “hERG current change (%, negative = inhibition) at 1uM” value turn out when `Cn1c(N)c(S(=O)(=O)NCc2ccccc2)c(=O)n(C)c1=O` was run?
**A.** The value was 11.4%.

**Q.** With `Cc1ccc(NC(=O)COC(=O)CNC(=O)c2cccc([N+](=O)[O-])c2)cc1S(=O)(=O)N1CCCCCC1` as the compound, how does the “hERG current change (%, negative = inhibition) at 1uM” value read?
**A.** The value was -3.13%.

**Q.** Which “hERG current change (%, negative = inhibition) at 1uM” value does the source give for `CCOc1cc(NC(=O)c2cccs2)c(OCC)cc1NC(=O)CCC(=O)NCC1CCCO1` (stereo not shown) here?
**A.** Its value is 17.9%.

**Q.** How did the “hERG current change (%, negative = inhibition) at 1uM” value turn out when `O=C(c1ccco1)n1nc(-c2cccnc2)nc1NCc1ccco1` was run?
**A.** Its value is 6.78%.

**Q.** With `CCOc1cc(CNCc2ccccn2)cc(Cl)c1OCC.Cl` as the compound, how does the “hERG current change (%, negative = inhibition) at 1uM” value read?
**A.** Its value is 7.83%.

**Q.** `COC(=O)c1ccccc1NC(=O)CNC(=O)c1ccc(OC)c(OC)c1` was tested. Which “hERG current change (%, negative = inhibition) at 1uM” value did it give?
**A.** The value was 8.47%.

**Q.** With `Cc1nc(S(=O)(=O)N2CCOCC2)c(C#N)c(C)c1Cl` as the compound, how does the “hERG current change (%, negative = inhibition) at 1uM” value read?
**A.** The value was 10.9%.

**Q.** Which “hERG current change (%, negative = inhibition) at 1uM” value does the source give for `CCCCn1c(N)c(N(CCC(C)C)C(=O)C2CC(=O)N(CCc3ccc(OC)c(OC)c3)C2)c(=O)[nH]c1=O` (stereo not shown) here?
**A.** The value was 17.6%.

**Q.** `NC(=O)c1ccc(-n2nnnc2SCC(=O)Nc2ccccc2F)cc1` was tested. Which “hERG current change (%, negative = inhibition) at 1uM” value did it give?
**A.** Its value is 9.62%.

**Q.** Which “hERG current change (%, negative = inhibition) at 1uM” value does the source give for `Cc1ccc(C(=O)N2C(=O)C(c3ccccc3)Oc3ccccc32)cc1` (stereo not shown) here?
**A.** The value was 7.91%.

**Q.** Which “hERG current change (%, negative = inhibition) at 1uM” value does the source give for `CCc1nc2ccccc2n1CC(=O)Nc1cc(C)on1` here?
**A.** Its value is 6.48%.

**Q.** Which “hERG current change (%, negative = inhibition) at 1uM” value does the source give for `COc1cccc(NS(=O)(=O)c2ccc3c(c2)CC(=O)N3)c1` here?
**A.** Its value is 9.33%.

**Q.** How did the “hERG current change (%, negative = inhibition) at 1uM” value turn out when `O=C(C1CCN(S(=O)(=O)N2CCOCC2)CC1)N1CCc2ccccc21` was run?
**A.** The value was 14.9%.
